# Measurements: article PMC9911399, “Two distinct binding modes provide the RNA-binding protein RbFox with extraordinary sequence specificity”
# Residue numbers refer to the chain shown, from its start. The list shows a part of the results.
# T1: RBFOX1 RRM (Homo sapiens, UniProt Q9NWB1 109-208)
# T1 sequence: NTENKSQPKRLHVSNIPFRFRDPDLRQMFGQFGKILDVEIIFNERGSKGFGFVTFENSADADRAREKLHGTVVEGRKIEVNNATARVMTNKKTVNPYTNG
# B1: GGCUAAU (DNA:RNA)
# RNA: GGGAGACCGGAAUUCAGAUUGUCCGGCUAAUUUAAAUCCCGUCGUAGCCACCA
# DNA 1: CAATCTGAATTCCGGTCTCCC
# DNA 2: TGGTGGCTACGACGGGATT
# B2: UAAGCGG (DNA:RNA)
# RNA: GGGAGACCGGAAUUCAGAUUGUCCUAAGCGGUUAAAUCCCGUCGUAGCCACCA
# DNA 1: CAATCTGAATTCCGGTCTCCC
# DNA 2: TGGTGGCTACGACGGGATT
# B3: AAGGUCG (DNA:RNA)
# RNA: B2 RNA with U25A, A27G, C29U, G30C
# DNA 1: CAATCTGAATTCCGGTCTCCC
# DNA 2: TGGTGGCTACGACGGGATT
# B4: GUGCUCA (DNA:RNA)
# RNA: B1 RNA with G26U, C27G, U28C, A29U, A30C, U31A
# DNA 1: CAATCTGAATTCCGGTCTCCC
# DNA 2: TGGTGGCTACGACGGGATT
# B5: UACUUUG (DNA:RNA)
# RNA: B2 RNA with A27C, G28U, C29U, G30U
# DNA 1: CAATCTGAATTCCGGTCTCCC
# DNA 2: TGGTGGCTACGACGGGATT
# B6: GCUCGCU (DNA:RNA)
# RNA: B1 RNA with G26C, C27U, U28C, A29G, A30C
# DNA 1: CAATCTGAATTCCGGTCTCCC
# DNA 2: TGGTGGCTACGACGGGATT
# B7: ACCACCA (DNA:RNA)
# RNA: B1 RNA with G25A, G26C, U28A, A29C, A30C, U31A
# DNA 1: CAATCTGAATTCCGGTCTCCC
# DNA 2: TGGTGGCTACGACGGGATT
# B8: CCCUGCC (DNA:RNA)
# RNA: B1 RNA with G25C, G26C, A29G, A30C, U31C
# DNA 1: CAATCTGAATTCCGGTCTCCC
# DNA 2: TGGTGGCTACGACGGGATT
# B9: UUAACGU (DNA:RNA)
# RNA: B2 RNA with A26U, G28A, G31U
# DNA 1: CAATCTGAATTCCGGTCTCCC
# DNA 2: TGGTGGCTACGACGGGATT
# Molecular target: T1, RBFOX1 RRM
# Test: EMSA; HiTS-Eq, 1 nM pool, 10 min; buffer printed only for the single-RNA assays: 10 mM Tris pH 7.5, 150 mM NaCl, 3.4 mM EDTA, 0.001% NP-40, 30 C
# Details: tags: His6 N-terminal (pET28a); label: 5' 32P
# Outline: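 Purified wild-type or mutant RbFox RRM at increasing concentrations was equilibrated with 1 nM of 5′-radiolabelled RNA carrying 7 randomized nucleotides for 10 min in 50 µL. Unbound RNA was separated by 8% native PAGE and sequenced. Relative association constants came from read-count changes of each RNA species compared with the control reaction, normalised to the cognate motif.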
row,Binder,binding signal
1,B1,0.00988 KA relative to UGCAUGU
2,B2,0.00981 KA relative to UGCAUGU
3,B3,0.0162 KA relative to UGCAUGU
4,B4,0.0136 KA relative to UGCAUGU
5,B5,0.0222 KA relative to UGCAUGU
6,B6,0.0215 KA relative to UGCAUGU
7,B7,0.00167 KA relative to UGCAUGU
8,B8,0.00271 KA relative to UGCAUGU
9,B9,0.00938 KA relative to UGCAUGU
